The target of experiment [1] is T1, high-affinity hIL-2 receptor (IL-2Rαβγ) on NK-92 cells (human, UniProt P01589 22-272; P14784 27-551; P31785 23-369).
T1 sequence 1: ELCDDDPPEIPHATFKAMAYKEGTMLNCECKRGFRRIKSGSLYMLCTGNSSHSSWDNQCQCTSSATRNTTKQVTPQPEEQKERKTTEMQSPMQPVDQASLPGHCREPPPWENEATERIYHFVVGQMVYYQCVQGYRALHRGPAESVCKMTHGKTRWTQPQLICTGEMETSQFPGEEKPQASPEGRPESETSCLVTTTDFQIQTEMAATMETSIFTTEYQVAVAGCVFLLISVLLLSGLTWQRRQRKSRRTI
T1 sequence 2: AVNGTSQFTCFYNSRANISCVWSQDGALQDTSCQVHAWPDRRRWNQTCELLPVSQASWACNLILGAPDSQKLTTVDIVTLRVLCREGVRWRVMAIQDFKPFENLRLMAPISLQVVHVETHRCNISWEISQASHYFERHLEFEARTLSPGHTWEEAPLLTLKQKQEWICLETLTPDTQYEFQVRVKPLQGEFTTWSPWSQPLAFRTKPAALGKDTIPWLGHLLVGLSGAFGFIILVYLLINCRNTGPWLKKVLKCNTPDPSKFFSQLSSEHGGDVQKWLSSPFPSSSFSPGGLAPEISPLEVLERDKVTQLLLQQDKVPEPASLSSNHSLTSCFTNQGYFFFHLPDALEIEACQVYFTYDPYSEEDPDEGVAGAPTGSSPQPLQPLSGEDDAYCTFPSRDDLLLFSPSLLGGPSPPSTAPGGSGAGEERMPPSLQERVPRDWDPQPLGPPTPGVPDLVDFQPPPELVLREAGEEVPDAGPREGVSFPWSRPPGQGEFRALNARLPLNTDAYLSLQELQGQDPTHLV
T1 sequence 3: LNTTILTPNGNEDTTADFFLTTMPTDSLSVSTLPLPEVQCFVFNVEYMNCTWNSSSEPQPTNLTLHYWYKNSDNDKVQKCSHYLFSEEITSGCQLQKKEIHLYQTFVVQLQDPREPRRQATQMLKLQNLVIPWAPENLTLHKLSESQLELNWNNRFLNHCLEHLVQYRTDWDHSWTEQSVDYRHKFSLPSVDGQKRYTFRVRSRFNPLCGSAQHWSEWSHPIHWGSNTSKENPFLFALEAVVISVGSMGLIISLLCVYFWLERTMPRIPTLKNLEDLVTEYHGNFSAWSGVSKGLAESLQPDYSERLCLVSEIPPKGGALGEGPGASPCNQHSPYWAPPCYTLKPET
Description: cell-based or functional assay.

Experiment [2] deals with T2, intermediate-affinity hIL-2 receptor (IL-2Rβγ) on TF1+IL-2Rβ cells (human, UniProt P14784 27-551; P31785 23-369).
T2 sequence 1: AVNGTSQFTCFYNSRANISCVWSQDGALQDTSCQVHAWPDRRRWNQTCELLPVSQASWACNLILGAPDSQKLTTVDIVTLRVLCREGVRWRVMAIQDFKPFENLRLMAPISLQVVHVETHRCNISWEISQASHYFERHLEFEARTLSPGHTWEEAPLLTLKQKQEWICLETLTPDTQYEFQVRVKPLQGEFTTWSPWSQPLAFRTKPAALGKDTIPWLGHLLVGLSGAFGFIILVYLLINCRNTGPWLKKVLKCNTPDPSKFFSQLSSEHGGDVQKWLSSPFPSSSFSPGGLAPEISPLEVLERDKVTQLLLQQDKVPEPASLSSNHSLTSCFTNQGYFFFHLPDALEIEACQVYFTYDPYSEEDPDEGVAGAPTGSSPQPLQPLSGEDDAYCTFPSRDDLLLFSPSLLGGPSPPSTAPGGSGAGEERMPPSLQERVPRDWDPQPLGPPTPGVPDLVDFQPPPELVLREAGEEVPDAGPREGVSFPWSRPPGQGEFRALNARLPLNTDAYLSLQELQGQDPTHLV
T2 sequence 2: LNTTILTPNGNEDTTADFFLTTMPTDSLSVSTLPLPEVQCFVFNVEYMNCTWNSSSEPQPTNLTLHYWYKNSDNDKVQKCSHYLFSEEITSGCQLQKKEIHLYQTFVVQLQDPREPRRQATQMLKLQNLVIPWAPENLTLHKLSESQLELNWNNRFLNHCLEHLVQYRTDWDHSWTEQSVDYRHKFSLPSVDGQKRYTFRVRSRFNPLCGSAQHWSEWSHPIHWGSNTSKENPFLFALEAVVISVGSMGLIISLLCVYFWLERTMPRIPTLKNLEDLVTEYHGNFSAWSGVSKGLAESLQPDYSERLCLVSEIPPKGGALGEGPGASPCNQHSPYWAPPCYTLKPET
Nature of the experiment: cell-based or functional assay.

Some results are limits rather than exact numbers.

B1: 1H3-hIgG1-L6-hIL-2 (D20M/R38E) (other)
heavy: EVQLVESGGGLVQPGRSLKLSCAVSGFTFSDYAMAWVRQAPKKGLEWVATISYDGSRTYYRDSVKGRFTISRDNAKITLYLQMDSLRSEDTATYYCARHGSGYFDYWGQGVMVTVSS[not shown - about 450 residues with a human IgG1 Fc and changes]
light: DTVLTQSPALAVSPGERVTISCRASESVRTGVHWYQQKPGQQPKLLIYGASNLESGVPARFSGSGSGTDFTLTIDPVEADDTATYFCQQSWNDPFTFGSGTKLEIKRTVAAPSVFIFPPSDEQLKSGTASVVCLLNNFYPREAKVQWKVDNALQSGNSQESVTEQDSKDSTYSLSSTLTLSKADYEKHKVYACEVTHQGLSSPVTKSFNRGEC
As for B1, the “Fold change from rhIL-2 (NK-92)” value in experiment [1] was > 10000 fold. Further, in experiment [2], the “Fold change from rhIL-2 (TF1 + IL-2Rβ)” value stood at 2610 fold.

B2: 1H3-hIgG1-L6-hIL-2 (D20F/R38E) (other)
heavy: EVQLVESGGGLVQPGRSLKLSCAVSGFTFSDYAMAWVRQAPKKGLEWVATISYDGSRTYYRDSVKGRFTISRDNAKITLYLQMDSLRSEDTATYYCARHGSGYFDYWGQGVMVTVSS[not shown - about 450 residues with a human IgG1 Fc and changes]
light: DTVLTQSPALAVSPGERVTISCRASESVRTGVHWYQQKPGQQPKLLIYGASNLESGVPARFSGSGSGTDFTLTIDPVEADDTATYFCQQSWNDPFTFGSGTKLEIKRTVAAPSVFIFPPSDEQLKSGTASVVCLLNNFYPREAKVQWKVDNALQSGNSQESVTEQDSKDSTYSLSSTLTLSKADYEKHKVYACEVTHQGLSSPVTKSFNRGEC
Consider B2, for which the “Fold change from rhIL-2 (NK-92)” value in experiment [1] is > 10000 fold. Also, the “Fold change from rhIL-2 (TF1 + IL-2Rβ)” value in experiment [2] was > 10000 fold.

B3: 1H3-hIgG1-L6-hIL-2 (D20L/R38E) (other)
heavy: EVQLVESGGGLVQPGRSLKLSCAVSGFTFSDYAMAWVRQAPKKGLEWVATISYDGSRTYYRDSVKGRFTISRDNAKITLYLQMDSLRSEDTATYYCARHGSGYFDYWGQGVMVTVSS[not shown - about 450 residues with a human IgG1 Fc and changes]
light: DTVLTQSPALAVSPGERVTISCRASESVRTGVHWYQQKPGQQPKLLIYGASNLESGVPARFSGSGSGTDFTLTIDPVEADDTATYFCQQSWNDPFTFGSGTKLEIKRTVAAPSVFIFPPSDEQLKSGTASVVCLLNNFYPREAKVQWKVDNALQSGNSQESVTEQDSKDSTYSLSSTLTLSKADYEKHKVYACEVTHQGLSSPVTKSFNRGEC
On to B3, for which, in experiment [1], the “Fold change from rhIL-2 (NK-92)” value was > 10000 fold. Besides, the “Fold change from rhIL-2 (TF1 + IL-2Rβ)” value in experiment [2] is > 10000 fold.

B4: 1H3-hIgG1-L6-hIL-2 (D20G/R38E) (other)
heavy: EVQLVESGGGLVQPGRSLKLSCAVSGFTFSDYAMAWVRQAPKKGLEWVATISYDGSRTYYRDSVKGRFTISRDNAKITLYLQMDSLRSEDTATYYCARHGSGYFDYWGQGVMVTVSS[not shown - about 450 residues with a human IgG1 Fc and changes]
light: DTVLTQSPALAVSPGERVTISCRASESVRTGVHWYQQKPGQQPKLLIYGASNLESGVPARFSGSGSGTDFTLTIDPVEADDTATYFCQQSWNDPFTFGSGTKLEIKRTVAAPSVFIFPPSDEQLKSGTASVVCLLNNFYPREAKVQWKVDNALQSGNSQESVTEQDSKDSTYSLSSTLTLSKADYEKHKVYACEVTHQGLSSPVTKSFNRGEC
B4: the “Fold change from rhIL-2 (NK-92)” value in experiment [1] is 1290 fold. For the same molecule, the “Fold change from rhIL-2 (TF1 + IL-2Rβ)” value in experiment [2] was 212 fold.

B5: 1H3-hIgG1-L6-hIL-2 (D20P/R38E) (other)
heavy: EVQLVESGGGLVQPGRSLKLSCAVSGFTFSDYAMAWVRQAPKKGLEWVATISYDGSRTYYRDSVKGRFTISRDNAKITLYLQMDSLRSEDTATYYCARHGSGYFDYWGQGVMVTVSS[not shown - about 450 residues with a human IgG1 Fc and changes]
light: DTVLTQSPALAVSPGERVTISCRASESVRTGVHWYQQKPGQQPKLLIYGASNLESGVPARFSGSGSGTDFTLTIDPVEADDTATYFCQQSWNDPFTFGSGTKLEIKRTVAAPSVFIFPPSDEQLKSGTASVVCLLNNFYPREAKVQWKVDNALQSGNSQESVTEQDSKDSTYSLSSTLTLSKADYEKHKVYACEVTHQGLSSPVTKSFNRGEC
Take B5: the “Fold change from rhIL-2 (NK-92)” value in experiment [1] is > 10000 fold. For the same molecule, the “Fold change from rhIL-2 (TF1 + IL-2Rβ)” value in experiment [2] is > 10000 fold.

B6: 1H3-hIgG1-L6-hIL-2 (D20V/R38E) (other)
heavy: EVQLVESGGGLVQPGRSLKLSCAVSGFTFSDYAMAWVRQAPKKGLEWVATISYDGSRTYYRDSVKGRFTISRDNAKITLYLQMDSLRSEDTATYYCARHGSGYFDYWGQGVMVTVSS[not shown - about 450 residues with a human IgG1 Fc and changes]
light: DTVLTQSPALAVSPGERVTISCRASESVRTGVHWYQQKPGQQPKLLIYGASNLESGVPARFSGSGSGTDFTLTIDPVEADDTATYFCQQSWNDPFTFGSGTKLEIKRTVAAPSVFIFPPSDEQLKSGTASVVCLLNNFYPREAKVQWKVDNALQSGNSQESVTEQDSKDSTYSLSSTLTLSKADYEKHKVYACEVTHQGLSSPVTKSFNRGEC
As to B6, the “Fold change from rhIL-2 (NK-92)” value in experiment [1] is > 10000 fold. Moreover, the “Fold change from rhIL-2 (TF1 + IL-2Rβ)” value in experiment [2] came out at 1850 fold.

B7: 1H3-hIgG1-L6-hIL-2 (D20E/R38E) (other)
heavy: EVQLVESGGGLVQPGRSLKLSCAVSGFTFSDYAMAWVRQAPKKGLEWVATISYDGSRTYYRDSVKGRFTISRDNAKITLYLQMDSLRSEDTATYYCARHGSGYFDYWGQGVMVTVSS[not shown - about 450 residues with a human IgG1 Fc and changes]
light: DTVLTQSPALAVSPGERVTISCRASESVRTGVHWYQQKPGQQPKLLIYGASNLESGVPARFSGSGSGTDFTLTIDPVEADDTATYFCQQSWNDPFTFGSGTKLEIKRTVAAPSVFIFPPSDEQLKSGTASVVCLLNNFYPREAKVQWKVDNALQSGNSQESVTEQDSKDSTYSLSSTLTLSKADYEKHKVYACEVTHQGLSSPVTKSFNRGEC
With B7, the “Fold change from rhIL-2 (NK-92)” value in experiment [1] was determined as 77 fold. Further, the “Fold change from rhIL-2 (TF1 + IL-2Rβ)” value in experiment [2] worked out at 12 fold.

B8: 1H3-hIgG1-L6-hIL-2 (D20N/R38E) (other)
heavy: EVQLVESGGGLVQPGRSLKLSCAVSGFTFSDYAMAWVRQAPKKGLEWVATISYDGSRTYYRDSVKGRFTISRDNAKITLYLQMDSLRSEDTATYYCARHGSGYFDYWGQGVMVTVSS[not shown - about 450 residues with a human IgG1 Fc and changes]
light: DTVLTQSPALAVSPGERVTISCRASESVRTGVHWYQQKPGQQPKLLIYGASNLESGVPARFSGSGSGTDFTLTIDPVEADDTATYFCQQSWNDPFTFGSGTKLEIKRTVAAPSVFIFPPSDEQLKSGTASVVCLLNNFYPREAKVQWKVDNALQSGNSQESVTEQDSKDSTYSLSSTLTLSKADYEKHKVYACEVTHQGLSSPVTKSFNRGEC
For the molecule B8, the “Fold change from rhIL-2 (NK-92)” value in experiment [1] was 1520 fold. Further, in experiment [2], the “Fold change from rhIL-2 (TF1 + IL-2Rβ)” value worked out at 378 fold.

B9: 1H3-hIgG1-L6-hIL-2 (D20T/R38E) (other)
heavy: EVQLVESGGGLVQPGRSLKLSCAVSGFTFSDYAMAWVRQAPKKGLEWVATISYDGSRTYYRDSVKGRFTISRDNAKITLYLQMDSLRSEDTATYYCARHGSGYFDYWGQGVMVTVSS[not shown - about 450 residues with a human IgG1 Fc and changes]
light: DTVLTQSPALAVSPGERVTISCRASESVRTGVHWYQQKPGQQPKLLIYGASNLESGVPARFSGSGSGTDFTLTIDPVEADDTATYFCQQSWNDPFTFGSGTKLEIKRTVAAPSVFIFPPSDEQLKSGTASVVCLLNNFYPREAKVQWKVDNALQSGNSQESVTEQDSKDSTYSLSSTLTLSKADYEKHKVYACEVTHQGLSSPVTKSFNRGEC
B9: in experiment [1], the “Fold change from rhIL-2 (NK-92)” value worked out at 524 fold. In addition, the “Fold change from rhIL-2 (TF1 + IL-2Rβ)” value in experiment [2] was 75 fold.

B10: 1H3-hIgG1-L6-hIL-2 (D20I/R38E) (other)
heavy: EVQLVESGGGLVQPGRSLKLSCAVSGFTFSDYAMAWVRQAPKKGLEWVATISYDGSRTYYRDSVKGRFTISRDNAKITLYLQMDSLRSEDTATYYCARHGSGYFDYWGQGVMVTVSS[not shown - about 450 residues with a human IgG1 Fc and changes]
light: DTVLTQSPALAVSPGERVTISCRASESVRTGVHWYQQKPGQQPKLLIYGASNLESGVPARFSGSGSGTDFTLTIDPVEADDTATYFCQQSWNDPFTFGSGTKLEIKRTVAAPSVFIFPPSDEQLKSGTASVVCLLNNFYPREAKVQWKVDNALQSGNSQESVTEQDSKDSTYSLSSTLTLSKADYEKHKVYACEVTHQGLSSPVTKSFNRGEC
Regarding B10, the “Fold change from rhIL-2 (NK-92)” value in experiment [1] is > 10000 fold. Further, the “Fold change from rhIL-2 (TF1 + IL-2Rβ)” value in experiment [2] amounted to 1780 fold.

The record behind these values is patent US20240076343A1 (CEPHALON, published 2024).
